Laboratory results published in paper PMC4336329 (PLoS ONE, 2015).
In all, about 310,000 compounds went through this assay and about 14,000 (4.5%) showed an effect of 50% or more. Effects have a minus sign here. The list shows a part of the results.

target: human ether-à-go-go-related gene (hERG) potassium channel (human, UniProt Q12809); experiment: primary screen, population patch clamp on CHO cells stably expressing hERG
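Further: peak tail current of the secondary pulse compared with the same well before compound.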

Chain of human ether-à-go-go-related gene (hERG) potassium channel (Q12809 whole entry, looked up): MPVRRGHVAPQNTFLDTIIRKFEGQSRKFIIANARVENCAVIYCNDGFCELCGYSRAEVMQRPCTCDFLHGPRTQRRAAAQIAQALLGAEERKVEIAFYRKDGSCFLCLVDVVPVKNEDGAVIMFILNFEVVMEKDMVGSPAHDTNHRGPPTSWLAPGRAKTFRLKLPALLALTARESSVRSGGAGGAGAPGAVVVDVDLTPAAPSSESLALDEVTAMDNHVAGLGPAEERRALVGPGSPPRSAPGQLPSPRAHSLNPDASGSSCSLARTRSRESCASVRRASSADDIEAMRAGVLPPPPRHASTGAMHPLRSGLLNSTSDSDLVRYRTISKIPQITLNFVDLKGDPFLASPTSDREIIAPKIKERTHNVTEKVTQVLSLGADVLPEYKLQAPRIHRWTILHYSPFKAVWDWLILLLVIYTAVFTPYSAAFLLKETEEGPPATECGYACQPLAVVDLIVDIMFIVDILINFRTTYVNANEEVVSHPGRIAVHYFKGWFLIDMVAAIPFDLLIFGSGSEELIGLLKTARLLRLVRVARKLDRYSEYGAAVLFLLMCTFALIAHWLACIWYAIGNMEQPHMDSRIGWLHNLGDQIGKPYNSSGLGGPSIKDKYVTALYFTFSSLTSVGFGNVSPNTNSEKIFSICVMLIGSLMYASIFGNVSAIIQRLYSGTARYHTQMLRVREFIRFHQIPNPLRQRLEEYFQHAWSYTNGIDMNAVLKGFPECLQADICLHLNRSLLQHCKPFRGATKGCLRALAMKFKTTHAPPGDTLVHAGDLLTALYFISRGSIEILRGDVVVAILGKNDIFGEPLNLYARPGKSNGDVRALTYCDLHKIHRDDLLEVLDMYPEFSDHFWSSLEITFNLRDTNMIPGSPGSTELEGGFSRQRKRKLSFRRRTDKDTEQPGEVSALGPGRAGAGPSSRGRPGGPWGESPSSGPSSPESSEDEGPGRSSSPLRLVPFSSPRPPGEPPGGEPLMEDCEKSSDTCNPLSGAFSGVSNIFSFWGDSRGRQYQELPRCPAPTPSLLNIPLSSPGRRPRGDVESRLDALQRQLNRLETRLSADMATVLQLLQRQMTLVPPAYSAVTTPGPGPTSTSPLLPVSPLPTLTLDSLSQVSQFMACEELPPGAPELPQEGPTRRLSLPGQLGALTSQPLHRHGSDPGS

SMILES	hERG current change (%, negative = inhibition) at 10uM
Cn1cc(CCCC(=O)NCc2ccccc2)c2ccccc21	-3.54%
O=C(Nc1ccc(OC(F)(F)F)cc1)C1CCCN(S(=O)(=O)c2cnc[nH]2)C1 (centres unmarked)	10.4%
COc1ccc(CC(=O)OCn2nnc3ccccc3c2=O)cc1	-1.18%
CC(=O)N1N=C(c2ccncc2)CC1c1ccccc1O (centres unmarked)	11.7%
CSCCC(NC(N)=O)C(=O)Nc1ccc(F)c(Cl)c1 (centres unmarked)	-6.51%
S=C(c1ccc(-c2ccc(Br)cc2)o1)N1CCCCC1	17%
O=C(Nc1ccc(C2CC2(Cl)Cl)cc1)c1ccccc1Br (centres unmarked)	6.07%
COc1ccc(OC)c(N(CC(=O)NCCSCc2ccco2)S(=O)(=O)c2ccccc2)c1	-69.2%
CCc1cccc(C)c1NC(=O)C1CN(S(=O)(=O)c2ccccc2)CCN1S(=O)(=O)c1ccccc1 (centres unmarked)	-13%
O=C(N/N=C/c1ccco1)c1cccc(N2Cc3ccccc3C2)c1	2.18%
O=C(C1CC1(c1ccccc1)c1ccccc1)N1CCOCC1 (centres unmarked)	1.5%
Cc1noc(C)c1C(=O)N1CCc2ccccc2C1	12.2%
COc1cccc(C2c3[nH]c4ccccc4c3CCN2Cc2cccn2-c2ncccn2)c1 (centres unmarked)	-76.1%
CSCCC(NC(=O)c1ccccc1Cl)C(=O)N1CCCCC1 (centres unmarked)	4.79%
Cc1cccc(OCc2nnc(SCC(=O)N(c3ccccc3)C3CCS(=O)(=O)C3)o2)c1 (centres unmarked)	-48.7%
CCN(CC)C(=O)N(CC)Cc1ccccc1	8.76%
COc1ccccc1/C=N/N1CCN(c2ccc(Cl)cc2)CC1	23.1%
CCCOc1ccc(C(=O)OCCN2CCCCC2)c(O)c1.Cl	-58.7%
CC(NC(=O)c1cccs1)C(=O)NC1=NCCS1 (centres unmarked)	1.3%
CC1CCc2nc3ccc(S(=O)(=O)N4CCC(C(=O)N5CCCCC5)CC4)cc3c(C(=O)O)c2C1 (centres unmarked)	10%
COc1ccc(C2=NOC3(CC(=O)N(c4ccc(F)cc4)C3=O)C2)cc1 (centres unmarked)	15.5%
O=C(NCc1ccccn1)c1cn(-c2ccccc2)nc1-c1ccc(Cl)cc1	-1.67%
CCOC(=O)c1nc(N)sc1C(=O)OCC	13.6%

SMILES	hERG current change (%, negative = inhibition) at 10uM
COc1ccc(NC(=S)Nc2ccc(OCc3ccccc3)cc2)cc1OC	9.06%
COc1ccc(OC)c(NC(=O)[C@@]2(CC(=O)O)CC(/C=C/c3ccccc3)=NO2)c1	22.1%
CC(C)N(CCn1c(=S)[nH]c2ccccc2c1=O)C(C)C	-40%
COc1cccc(Nc2ncnc3c2cnn3-c2cccc(C)c2)c1	1.03%
CCC(C(=O)OC(C)C)c1ccc2ccccc2c1 (centres unmarked)	7.86%
COc1ccc(Nc2nc(-c3ccccc3)cs2)cc1	1.45%
COc1ccc(C(=O)OCCNC(=O)c2c(Cl)nc3ccccn23)cc1.Cl	-6.58%
CC(C)[C@]1(c2ccccc2)ON(c2ccccc2C(F)(F)F)C1=O	1.77%
Cc1cccc(NC(=O)Cn2cnc3ccccc3c2=O)c1C	-5%
COc1ccc(C(NC(=O)c2c(F)c(F)c(F)c(F)c2F)c2ccccc2)cc1 (centres unmarked)	14.2%
Cc1nnc(NC(=O)C2(c3ccccc3)CCOCC2)s1	16.9%
Cc1ccc(C(=O)O)cc1NC(=O)CSc1ncnc2sc3c(c12)CCC3	-7.04%
O=C(c1cnccn1)N1CCc2c([nH]c3ccccc23)C1c1cccc(Cl)c1 (centres unmarked)	-33.6%
CCOCCCNS(=O)(=O)c1ccc(NC(=O)C2CC(=O)N(c3ccc(C)cc3)C2)cc1 (centres unmarked)	0.687%
C/C(CC(=O)Nc1cc(C)ccn1)=N\NC(=O)C(=O)Nc1cccc(C)c1	-9.79%
COc1ccc(/C=C(\NC(=O)c2cccs2)C(=O)NN)cc1OC	11.3%
CC1CN(C(=O)C(C)Sc2nnnn2C)CC(C)O1 (centres unmarked)	15.9%
O=[N+]([O-])c1ccc(S(=O)(=O)NCCc2ccncc2)cc1	-12.7%
COc1ccc(-c2oc3ccc(-c4cc(OC)c(OC)c(OC)c4)cc3c2-c2ccc(OC)nc2)cc1	14%
COc1cc(OC)cc(C(=O)N2CCC(N3CCN(c4ccccc4)CC3)CC2)c1	-26.9%
CCOc1ccccc1/C=N/n1c(COc2ccccc2)n[nH]c1=S	11.6%
COc1ccc(CN(C)C(=O)c2cccc(NS(=O)(=O)c3ccccc3)c2)cc1F	-17.8%
COc1cccc(CCNC(=O)c2cc(COc3c(F)cccc3F)on2)c1	-44%

SMILES	hERG current change (%, negative = inhibition) at 10uM
CCN(CC)CCCNC(=O)c1ccc(S(=O)(=O)Nc2ccc(C)c(C)c2)cc1	-19.8%
O=C(NCCO)c1cccc(Nc2nc(-c3ccccc3)c3cc(Cl)ccc3n2)c1	-6.4%
Cc1ccc(S(=O)(=O)N2CC(O)CC2C(=O)O)cc1 (centres unmarked)	20.7%
CC1CCN(CCc2nc3cc(NC(=O)COc4ccc([N+](=O)[O-])cc4)ccc3n2C)CC1	-68.4%
O=C(O/N=C1/CCSc2ccccc21)c1ccc(F)cc1	19.8%
CC(C)c1ccc(/C=N/NC(=O)c2nnn(-c3nonc3N)c2CN(C)C2CCCCC2)cc1	14.1%
Cc1cccc2sc(NS(=O)(=O)c3ccccc3)nc12	-4.36%
CCn1nccc1C(=O)Nc1nccs1	6.12%
COc1cc(C(=O)NC(=S)Nc2cccc3nc(C)ccc23)cc(OC)c1OC	13.7%
CCn1c(SC(C)C)nnc1C1CCN(S(=O)(=O)c2ccc(OC)cc2)CC1	-20.6%
C#CCOc1nc(C)cc(C)c1S(=O)(=O)c1ccccc1C	9.66%
Nn1c(SCC(=O)Nc2ccc3c(c2)OCCO3)nnc1-c1ccccn1	-11.7%
C/C(=C\C(=O)O)CC(=O)O	0.324%
Oc1cccc2cc3cccc(O)c3c(O)c12	5.24%
CCOC(=O)N1CCN(C(=O)CSCc2nc(-c3ccccc3C)oc2C)CC1	-21.2%
O=C(c1ccoc1)N1CCC2(CC1)Oc1ccc(Cl)cc1C(=O)C21CC(c2ccc(Cl)cc2)=NO1 (centres unmarked)	19.8%
CCC1CCCCN1CCCNC(=O)CSc1nc2nc(C)c(Cc3ccccc3Cl)c(C)n2n1 (centres unmarked)	-18.1%
O=Cc1c[nH]c2ccc(C(=O)c3ccccc3)cc12	3.97%
O=c1c(CO)cc(CO)cc(CO)c1O	8.3%
CC(Oc1cccc(Cl)c1)C(=O)Nc1ccncc1 (centres unmarked)	3.81%
CCOC(=O)CCn1nc(-c2ccccc2)cc1N	4.26%
CNC(=O)N/N=C(\N)c1ccccn1	7.1%
O=C(Nc1ccccc1)c1ccc(CSc2ccccn2)cc1	-6.57%

SMILES	hERG current change (%, negative = inhibition) at 10uM
O=C(Nc1ccccc1C(=O)Nc1ccccc1C(=O)NCc1ccco1)c1ccco1	3.18%
N#CCC(=O)NN=C1CCCCCCCCCCC1	6.59%
O=C1Nc2ccccc2N(O)N1c1ccc(Cl)cc1	19.7%
O=c1c2ccccc2nc(-c2ccccc2)n1-c1cccnc1	-11.1%
COc1cccc(CNC2CCCC2)c1	2.13%
O=C(NCc1ccc2c(c1)OCO2)c1ccc(CSCc2cccc(Cl)c2)o1	-11.1%
CC(C)CC(NC(=O)CCC(=O)OCC(=O)[C@@]1(O)CCC2[C@@H]3CCC4=CC(=O)C=C[C@]4(C)C3[C@@H](O)C[C@@]21C)C(=O)O (some centres unmarked)	0.23%
Cc1c(OC(C)C(=O)O)ccc2c3c(c(=O)oc12)CCCC3 (centres unmarked)	11.1%
O=[N+]([O-])c1ccc(N/N=C/c2cn(Cc3ccc(F)cc3)c3ccccc23)nc1	8.54%
CC(C)Oc1ccc(Cn2c(-c3ccco3)n[nH]c2=S)cc1	9.79%
O=c1c2c3c(sc2nc2n1CCC2)CCCCC3	-5.34%
COC(=O)C1=C(c2ccc3ccccc3c2)C[C@@H]2CC[C@H]1N2C(=O)NC1CCCCC1	-5.74%
O=C1C2C3C=CC(CC3)C2C(=O)N1c1ccc([N+](=O)[O-])cc1 (centres unmarked)	12.5%
CCOC(=O)CSc1nc2ccc(C)cc2n2cnnc12	-4.06%
CCOC(=O)N1CCN(S(=O)(=O)c2ccc(C(=O)NNc3nc4cc(C)cc(C)c4s3)cc2)CC1	19.5%
O=C1c2ccccc2NC2(CCCC2)N1N=C1CCCC1	-12.2%
Cc1nn(C)c(C)c1S(=O)(=O)N1CCC(C(=O)NC2CCCCC2)CC1	10.2%
Cc1ncoc1C(=O)N1CCc2c([nH]c3ccccc23)C1C1CCCCC1 (centres unmarked)	1.89%
Cc1ccc(C)c(OCCC(=O)OCC(=O)NCc2ccccc2)c1	15.4%
COCCNC(=O)C(c1cccs1)N(CCc1ccccc1)C(=O)Cn1nnc2ccccc21 (centres unmarked)	6.51%
